{
  "source": "PubChem BioAssay AID504832",
  "about": "(National Center for Advancing Translational Sciences (NCATS), 2011)",
  "note": "In all, about 310,000 compounds went through this assay and about 18,000 (5.8%) were called active. Inconclusive means that the source gave no clear call. Such entries were picked first, then a sample of the others. Calls follow the shape of the dose curve; as a rule, active = well fitted inhibition curve with a large enough effect; inconclusive = small, poorly fitted or top-dose-only effect, or another doubt; inactive = no such curve, though single readings can be large or run the other way. Potencies of inconclusive entries are left out as doubtful fits.",
  "data": [
    {"test": "Primary qHTS for delayed death inhibitors of the malarial parasite plastid, 48 hour incubation; also: potency is read from the fitted curve at half-maximal effect; tags tell the direction and shape of the fitted curve; as to activity change, negative = inhibition: % is scaled to controls: 0 for no effect and ±100 for the full control effect", "conditions": "P. falciparum luciferase growth in erythrocytes; series mostly up to 28.7 µM; activity change, negative = inhibition: at the top concentration", "method_in_brief": "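Firefly luciferase activity from engineered P. falciparum reports growth; inhibitors lower the luminescent signal. Cultures contained 2% hematocrit erythrocytes at 0.1% final parasitemia.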", "values": [
      {"compound": "CCC1(C)CC(CCNS(=O)(=O)c2ccc(C)cc2)(c2ccc(C)cc2)CCO1", "note": "(configuration not stated)", "Potency": "inconclusive [inhibitor, single point]"},
      {"compound": "Fc1ccccc1COc1ccccc1CNCc1ccncc1", "Potency": "inconclusive [inhibitor, single point]"},
      {"compound": "O=C(C1CCN(c2nnc(N3CCCC3=O)s2)CC1)N1CCN(c2cccc(C(F)(F)F)c2)CC1", "Potency": "inconclusive [inhibitor, full curve, poor fit]"},
      {"compound": "O=C(COC(=O)c1cccs1)Nc1ccccc1Cl", "activity change, negative = inhibition": "inactive: 4.31%"},
      {"compound": "CCOC(=O)c1nn(-c2ccc(Cl)cc2)c2nc(-c3ccc(C)cc3)c(C#N)c(=O)n12", "Potency": "active: 9.28 µM"},
      {"compound": "CCOC(=O)C1=C(C)N(C)C(C)=C(C(=O)OCC)C1c1ccncc1", "Potency": "inconclusive [inhibitor, partial curve, poor fit]"},
      {"compound": "COc1ccc(C2=NN(C(=O)CCC(=O)O)C(c3ccccc3OC)C2)cc1", "note": "(configuration not stated)", "Potency": "inconclusive [inhibitor, partial curve, poor fit]"},
      {"compound": "CCc1ccc(-c2cc(C)no2)cc1S(=O)(=O)N1CCN(c2ccc(F)cc2)CC1", "Potency": "active: 13.1 µM"},
      {"compound": "O=C(OCC(=O)N1CCCC1)c1ccccc1OCc1ccccc1", "activity change, negative = inhibition": "inactive: 14.5%"},
      {"compound": "CC(=O)Nc1ccc(S(=O)(=O)N2CCN(c3nc(C)cc(C)n3)CC2)cc1", "Potency": "inconclusive [inhibitor, partial curve, poor fit]"},
      {"compound": "C/C(=N\\NC(=O)CCCNc1cccc(C)c1)c1ccncc1", "activity change, negative = inhibition": "inactive: -17.5%"},
      {"compound": "CCc1ccccc1NC(=O)C1CCCN1C(=O)Nc1ccc(C)cc1", "note": "(configuration not stated)", "activity change, negative = inhibition": "inactive: 0%"},
      {"compound": "CN(c1ccccc1)S(=O)(=O)c1ccc(Cl)c(C(=O)Nc2ccc(N3CCOCC3)cc2)c1", "Potency": "inconclusive [inhibitor, single point]"},
      {"compound": "CC(C)NC(=O)CSc1ccccc1C(=O)N1CCN(S(=O)(=O)Cc2ccccc2)CC1", "activity change, negative = inhibition": "inactive: -23.8%"},
      {"compound": "O=C(COC(=O)c1ccccc1C(=O)OCC(=O)NCCc1c[nH]c2ccccc12)NCCc1c[nH]c2ccccc12", "Potency": "active: 9.28 µM"},
      {"compound": "Cc1cc(C)c(NC(=O)CSc2nnc(-c3ccncc3)n2Cc2ccco2)c(Cl)c1", "Potency": "inconclusive [inhibitor, single point]"},
      {"compound": "CS(=O)(=O)Nc1ccc(C(=O)NCCSCc2ccco2)cc1", "activity change, negative = inhibition": "inactive: 11.7%"},
      {"compound": "CCOC(=O)c1ccc(CNC(=O)Cn2nnc(-c3ccc(C)cc3)n2)o1", "Potency": "inconclusive [inhibitor, partial curve, poor fit]"},
      {"compound": "O=C(NCC(c1cccs1)N1CCOCC1)c1cc2ccccc2o1", "note": "(configuration not stated)", "Potency": "inconclusive [inhibitor, partial curve]"},
      {"compound": "COc1ccc(OCCSCc2nnc(NC(=O)Nc3ccc(Cl)cc3)s2)cc1", "Potency": "inconclusive [inhibitor, single point]"},
      {"compound": "O=C(CSc1nc(C2CC2)nc2ccccc12)Nc1ccccc1Cl", "activity change, negative = inhibition": "inactive: 8.58%"},
      {"compound": "COc1ccc(-c2cc(C(=O)Nc3nc4c(C)cccc4s3)c3ccccc3n2)cc1OC", "activity change, negative = inhibition": "inactive: 19.9%"},
      {"compound": "COc1ccc(Nc2nc(C)nc3sc4c(c23)CCC4)cc1O", "Potency": "inconclusive [inhibitor, partial curve, poor fit]"},
      {"compound": "COc1ccc(N=Cc2c(O)n(Cc3cccs3)c(=O)[nH]c2=O)cc1", "activity change, negative = inhibition": "inactive: 13.4%"},
      {"compound": "O=C(CN1CCC(n2nnc3cc(C(F)(F)F)ccc32)CC1)Nc1ccc2c(c1)OCCO2", "Potency": "active: 11.7 µM"},
      {"compound": "CCOC(=O)c1oc2ccc3c(c2c1C)C(=O)CC1(CCN(C(=O)OCC)CC1)O3", "Potency": "active: 2.62 µM"},
      {"compound": "COc1ccc(-c2cc(C(=O)Nc3cccc(O)c3)no2)cc1", "Potency": "inconclusive [inhibitor, single point]"},
      {"compound": "C#CCOCCOCCOCCNc1nc(N2CCN(C(=O)CCCCCCCCCCNC(=O)Cn3cc(C[C@@H](C)O)nn3)CC2)nc(N2CCN(C(=O)CCCCCCCCCCNC(=O)[C@@H]([C@H](C)O)n3cc(C)nn3)CC2)n1", "Potency": "active: 0.0738 µM"},
      {"compound": "COc1ccccc1N1CCN(C(=O)C(=O)c2cn(CC(=O)N3CCCCCC3)c3ccccc23)CC1", "Potency": "active: 9.28 µM"},
      {"compound": "COc1ccc(C(=O)C2CCCN(Cc3cccn3-c3nccs3)C2)cc1OC", "note": "(configuration not stated)", "Potency": "inconclusive [inhibitor, partial curve, poor fit]"},
      {"compound": "CSc1nc(N)nc(SCC(=O)Nc2cccc(F)c2)c1C#N", "Potency": "inconclusive [inhibitor, single point]"},
      {"compound": "Cc1cccc(NC(=O)c2nc[nH]c2C(=O)N[C@H](C)c2ccccc2)c1", "Potency": "inconclusive [inhibitor, single point]"},
      {"compound": "O=C(NCSc1ccncn1)c1ccccc1", "Potency": "inconclusive [inhibitor, partial curve, poor fit]"},
      {"compound": "COc1cccc(CC2(CO)CCCN(Cc3cn[nH]c3C3CCCCC3)C2)c1", "note": "(configuration not stated)", "Potency": "inconclusive [inhibitor, partial curve]"},
      {"compound": "COC(=O)CN1C(=O)CN=C(c2ccccc2Cl)c2cc(Br)ccc21", "Potency": "inconclusive [inhibitor, partial curve, poor fit]"},
      {"compound": "O=C(CN1C(=O)NC2(CCCCC2)C1=O)Nc1ccc(Cl)c(S(=O)(=O)N2CCOCC2)c1", "Potency": "inconclusive [inhibitor, single point]"},
      {"compound": "COc1cc(/C=C/C(=O)Nc2cccc(S(=O)(=O)NC3=NCCCCC3)c2)ccc1OCC#N", "Potency": "active: 10.4 µM"},
      {"compound": "CN(C)CCN(Cc1ccco1)C(=O)c1cc2c(Cl)nc3ccccc3c2s1", "Potency": "inconclusive [inhibitor, single point]"},
      {"compound": "C=CCn1c(SCc2cccc3ccccc23)nnc1-c1cccnc1", "Potency": "inconclusive [inhibitor, full curve, poor fit]"},
      {"compound": "COc1ccccc1-n1nnnc1SCc1ccccc1", "Potency": "inconclusive [inhibitor, partial curve, poor fit]"},
      {"compound": "CC1=CC(c2ccccc2)n2nc(NC(=O)CCC(=O)O)nc2N1", "note": "(configuration not stated)", "Potency": "inconclusive [inhibitor, partial curve, poor fit]"},
      {"compound": "O=c1cc(/C=C/c2ccccc2)oc2ccccc12", "Potency": "inconclusive [inhibitor, single point]"}
    ]}
  ]
}
